Source: PubChem BioAssay AID2100 (National Center for Advancing Translational Sciences (NCATS), 2009)
The whole screen tested about 300,000 compounds, of which about 1,200 (0.4%) were called active. Inconclusive means that the source gave no clear call. Such entries were picked first, then a sample of the others. Calls come from the whole dose curve; as a rule, active = well fitted inhibition curve with a large enough effect; inconclusive = small, poorly fitted or top-dose-only effect, or another doubt; inactive = no such curve, though single readings can be large or run the other way. Where the call is inconclusive, the potency comes from a doubtful curve fit.

Target: Lysosomal alpha-glucosidase (Homo sapiens) (UniProt P10253)
Assay: qHTS Assay for Inhibitors and Activators of Human alpha-Glucosidase Cleavage of Glycogen
Conditions: recombinant GAA, glycogen substrate, Amplex Red glucose oxidase fluorescence; series mostly up to 76.4 µM
In short: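 Natural-substrate format: glycogen cleavage by 4 nM human enzyme, glucose read by Amplex Red coupling (Ex 573, Em 610 nm). Normalized to enzyme and no-enzyme controls.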
Potency is the fitted concentration of half-maximal effect.

Question: How did the Potency turn out when `O=C(CSCc1cnn(-c2ccccc2)c1-n1cccc1)NCc1ccccc1F` was run?
Answer: The Potency was “inactive”.

Question: For `NC(=O)NC(=O)C(Nc1ccc(N2CCCCC2)cc1)c1ccccc1` (configuration not stated), which Potency is on record?
Answer: The Potency was inconclusive: 11.2 µM [inhibitor, single point].

Question: `Cc1cc(SCC(=O)c2ccc(O)c(O)c2)n2nc(C)c(-c3ccccc3)c2n1` was tested. Which Potency did it give?
Answer: The Potency was inconclusive: 10 µM [inhibitor, full curve].

Question: `COc1cc2c(C(=O)N3CCN(c4cccc(C)c4)C(C)C3)cn(CC(C)C)c(=O)c2cc1OC` (configuration not stated) was tested. Which Potency did it give?
Answer: The Potency was inconclusive: 6.31 µM [inhibitor, partial curve].

Question: For `O=C(CC1SC(=O)N(c2ccccc2)C1=O)Nc1ccc(Cl)cc1` (configuration not stated), which Potency is on record?
Answer: The Potency was inconclusive: 50.1 µM [inhibitor, single point].

Question: How did the Potency turn out when `CC(C)CCOc1ccc(C2N=C(N)Nc3nc4ccccc4n32)cc1` (configuration not stated) was run?
Answer: The Potency was “inactive”.

Question: `COc1ccccc1C(=O)N(Cc1nc(-c2cccc(C)c2)no1)C(C)C` was tested. Which Potency did it give?
Answer: The Potency was inconclusive: 11.2 µM [inhibitor, single point].

Question: Which Potency does the source give for `COc1ccc2[nH]c(C)c(CCNC(=S)Nc3ccc(C)cc3)c2c1` here?
Answer: Its Potency is inconclusive: 35.5 µM [inhibitor, partial curve, poor fit].

Question: How did the Potency turn out when `CCOc1ccc(NC(=S)Nc2cc(-c3ccccc3)[nH]n2)cc1` was run?
Answer: The Potency was inconclusive: 8.84 µM [inhibitor, partial curve].

Question: For `COc1ccc(-c2c3c(=O)n(C)c(=O)n(C)c3cn2-c2ccc(O)cc2)cc1`, which Potency is on record?
Answer: Its Potency is inconclusive: 50.1 µM [inhibitor, single point].

Question: Which Potency does the source give for `C=CCN1C=CC(=C/C=C(/C#N)C(=O)OCC)C=C1` here?
Answer: Its Potency is inconclusive: 50.1 µM [inhibitor, single point].

Question: How did the Potency turn out when `Cc1ccc(NC(=O)CN2C(=O)CCc3ccccc32)cc1C` was run?
Answer: The Potency was “inactive”.

Question: How did the Potency turn out when `O=C(Nc1ccc(Cl)cc1)Nc1ccccc1C(=O)NCc1ccco1` was run?
Answer: The Potency was inconclusive: 35.2 µM [inhibitor, single point].

Question: `COc1cc(C2C3=C(CCCC3=O)Nc3ccc4ncccc4c32)ccc1O` (configuration not stated) was tested. Which Potency did it give?
Answer: Its Potency is inconclusive: 17.8 µM [inhibitor, partial curve].

Question: `NNC(=S)NC1CCCCC1` was tested. Which Potency did it give?
Answer: The Potency was inconclusive: 50.1 µM [inhibitor, single point].

Question: `Cn1c(-n2cccc2)c(-c2c(-c3ccc(F)cc3)[nH]c3c2c(=O)n(C)c(=O)n3C)c(=O)n(C)c1=O` was tested. Which Potency did it give?
Answer: Its Potency is “inactive”.

Question: With `CN(C)S(=O)(=O)c1ccc(-c2csc(N/N=C/c3ccco3)n2)cc1` as the molecule, how does the Potency read?
Answer: Its Potency is inconclusive: 17.8 µM [inhibitor, partial curve].

Question: How did the Potency turn out when `CCOc1ccc(NC2SC(=O)N(Cc3ccccc3)C2=O)cc1` (configuration not stated) was run?
Answer: Its Potency is inconclusive: 28.2 µM [inhibitor, single point].

Question: With `O=C(Nc1cccs1)Nc1ccc(F)cc1F` as the molecule, how does the Potency read?
Answer: Its Potency is inconclusive: 12.6 µM [inhibitor, partial curve].

Question: Which Potency does the source give for `C/C(Cn1nc([N+](=O)[O-])cc1C)=N\NC(=O)c1ccc(O)cc1O` here?
Answer: Its Potency is inconclusive: 15.7 µM [inhibitor, partial curve].

Question: `CNC(=S)N/N=C/c1ccc(N(C)C)cc1` was tested. Which Potency did it give?
Answer: The Potency was inconclusive: 11.2 µM [inhibitor, partial curve].

Question: For `O=C(c1ccc(NS(=O)(=O)c2ccc(F)cc2)cc1)N1CCN(c2ccccc2O)CC1`, which Potency is on record?
Answer: Its Potency is inconclusive: 5.62 µM [inhibitor, full curve].

Question: With `COc1ccc(NC(=O)C/C(C)=N/NC(=O)c2ccncc2)c([N+](=O)[O-])c1` as the molecule, how does the Potency read?
Answer: The Potency was inconclusive: 14 µM [inhibitor, partial curve].

Question: Which Potency does the source give for `Cn1cccc1C(C#N)c1ncc(C(F)(F)F)cc1Cl` (configuration not stated) here?
Answer: The Potency was inconclusive: 17.8 µM [inhibitor, partial curve].

Question: `COc1cc(C(=O)N/N=C/c2ccc3c(c2)c2ccccc2n3C)ccc1O` was tested. Which Potency did it give?
Answer: Its Potency is inconclusive: 50.1 µM [inhibitor, single point].

Question: Which Potency does the source give for `S=c1[nH]nc(Cc2ccc(Cl)cc2)n1-c1ccc2c(c1)OCCO2` here?
Answer: Its Potency is inconclusive: 56.2 µM [inhibitor, partial curve, poor fit].

Question: `c1ccc(-c2ccc3c(c2)NC(C2Nc4cc(-c5ccccc5)ccc4O2)O3)cc1` (configuration not stated) was tested. Which Potency did it give?
Answer: The Potency was inconclusive: 39.5 µM [inhibitor, single point].

Question: With `CN(Cc1ccccc1)c1nnc(NC(=O)Nc2cccc(Br)c2)s1` as the molecule, how does the Potency read?
Answer: Its Potency is “inactive”.

Question: `Cc1ccn2c(Nc3c(C)cccc3C)c(-c3ccsc3)nc2c1` was tested. Which Potency did it give?
Answer: The Potency was inconclusive: 12.6 µM [inhibitor, partial curve].

Question: With `O=C(c1ccc(-c2nc3ccccc3s2)o1)N1CCN(c2ccccc2O)CC1` as the molecule, how does the Potency read?
Answer: The Potency was inconclusive: 11.2 µM [inhibitor, single point].

Question: For `COc1cc(CN2CCNC(=O)C2CC(=O)N2CCCCO2)cc(OC)c1` (configuration not stated), which Potency is on record?
Answer: The Potency was inconclusive: 22.2 µM [activator, partial curve].

Question: `CN(C)CCNc1c(N)c(=O)oc2ccccc12` was tested. Which Potency did it give?
Answer: Its Potency is “inactive”.

Question: Which Potency does the source give for `COc1cc(/C=N/Nc2nc(=O)[nH]nc2C)cc(OC)c1O` here?
Answer: Its Potency is inconclusive: 35.5 µM [inhibitor, single point].

Question: How did the Potency turn out when `CCOc1ccc(N(CC(=O)Nc2ccccc2CC)S(=O)(=O)c2c(C)[nH]c(=O)[nH]c2=O)cc1` was run?
Answer: Its Potency is “inactive”.

Question: With `COc1ccc(NC2SC(=O)N(C)C2=O)cc1` (configuration not stated) as the molecule, how does the Potency read?
Answer: The Potency was inconclusive: 24.9 µM [inhibitor, partial curve].

Question: Which Potency does the source give for `CCc1ccccc1NC(=O)C1CCN(C(=O)N2CC(C)Oc3ccc(Cl)cc32)CC1` (configuration not stated) here?
Answer: Its Potency is inconclusive: 31.6 µM [activator, partial curve].

Question: For `COc1cc(/C=C/c2nc(C#N)c(NCCc3ccccc3)o2)cc(OC)c1OC`, which Potency is on record?
Answer: The Potency was inconclusive: 31.6 µM [inhibitor, single point].

Question: How did the Potency turn out when `Cc1ccc(Nc2nc(CSc3nnc(-c4ccc(F)cc4)n3C)cs2)cc1` was run?
Answer: Its Potency is inconclusive: 15.8 µM [inhibitor, partial curve].

Question: How did the Potency turn out when `Cc1ccc(C)c(NC(=S)c2ccccn2)c1` was run?
Answer: The Potency was “inactive”.

Question: How did the Potency turn out when `COc1cccc(CN2C(=O)c3ccccc3S2(=O)=O)c1` was run?
Answer: The Potency was inconclusive: 11.2 µM [inhibitor, single point].

Question: With `CC(C)(NO)/C(=N\O)c1ccccc1` as the molecule, how does the Potency read?
Answer: The Potency was inconclusive: 22.2 µM [inhibitor, single point].

Question: `Cc1ccc(-c2nc(C#N)c(NCCCn3ccnc3)o2)cc1` was tested. Which Potency did it give?
Answer: The Potency was inconclusive: 17.6 µM [inhibitor, single point].

Question: With `CCC(C)Nc1oc(-c2ccc(COc3ccc(Cl)cc3)o2)nc1C#N` (configuration not stated) as the molecule, how does the Potency read?
Answer: Its Potency is inconclusive: 25.1 µM [inhibitor, single point].

Question: For `NNC(=O)c1ccc(CSc2n[nH]c(=O)[nH]c2=O)cc1`, which Potency is on record?
Answer: The Potency was inconclusive: 50.1 µM [activator, single point].

Question: Which Potency does the source give for `CCN(C(=O)CN1CCN(c2ccc(O)cc2)CC1)c1c(N)n(Cc2ccccc2)c(=O)[nH]c1=O` here?
Answer: Its Potency is active: 17.8 µM.

Question: Which Potency does the source give for `CC(/C=N/N1C(=O)CSC1=S)=C\c1ccccc1` here?
Answer: Its Potency is inconclusive: 25.1 µM [inhibitor, partial curve].

Question: For `CN1CCN(c2nc(Nc3ccc(O)cc3)nc3ccccc23)CC1`, which Potency is on record?
Answer: Its Potency is inconclusive: 8.91 µM [inhibitor, full curve].

Question: `C=CCn1c(N/N=C/c2ccc(O)cc2)nc2ccccc2c1=O` was tested. Which Potency did it give?
Answer: The Potency was inconclusive: 11.2 µM [inhibitor, partial curve].

Question: Which Potency does the source give for `O=C(Cc1ccc2c(c1)OCCO2)N1CCN(S(=O)(=O)c2cccc(Cl)c2Cl)CC1` here?
Answer: Its Potency is “inactive”.

Question: Which Potency does the source give for `CC1(C)Oc2ccc3ccc(=O)oc3c2/C(=C/O)C1=O` here?
Answer: Its Potency is inconclusive: 44.7 µM [inhibitor, single point].

Question: Which Potency does the source give for `O=C(O)c1ccc(N/N=C/c2ccc(-c3ccccc3)cc2)cc1` here?
Answer: Its Potency is inconclusive: 28.2 µM [inhibitor, partial curve].

Question: Which Potency does the source give for `O=[N+]([O-])c1cc([N+](=O)[O-])c2cccnc2c1Oc1ccccc1O` here?
Answer: The Potency was inconclusive: 2.22 µM [inhibitor, full curve].

Question: `CCN(CC)c1ccc(NC(=O)c2cc(Cl)ccc2OC)cc1` was tested. Which Potency did it give?
Answer: Its Potency is inconclusive: 31.4 µM [activator, partial curve].

Question: For `O=C(Oc1ccc[nH]c1=O)c1cccc(Cl)c1`, which Potency is on record?
Answer: Its Potency is inconclusive: 28 µM [inhibitor, single point].

Question: Which Potency does the source give for `COc1ccc(NC(=O)ON=C2c3ccccc3-c3ccccc32)cc1` here?
Answer: Its Potency is inconclusive: 14 µM [inhibitor, partial curve].

Question: `COc1ccc(C(=O)c2cn[nH]c2-c2ccc(C)cc2O)cc1` was tested. Which Potency did it give?
Answer: Its Potency is “inactive”.

Question: `CC1(C)C(c2cccs2)=[N+]([O-])C2(CCCCC/C2=N\O)N1O` (configuration not stated) was tested. Which Potency did it give?
Answer: The Potency was inconclusive: 39.8 µM [inhibitor, partial curve].

Question: `CC(=O)Nc1sc(NC(=O)c2ccccc2)nc1-c1cccs1` was tested. Which Potency did it give?
Answer: Its Potency is inconclusive: 24.9 µM [inhibitor, partial curve].

Question: With `NC(=O)CSc1nnc(Cc2csc(Nc3ccccc3)n2)n1Cc1ccccc1` as the molecule, how does the Potency read?
Answer: Its Potency is inconclusive: 44.7 µM [inhibitor, partial curve].

Question: Which Potency does the source give for `CCN1CCC(=NNC(=O)c2ccc(C)c([N+](=O)[O-])c2)CC1` here?
Answer: The Potency was inconclusive: 22.4 µM [inhibitor, partial curve].

Question: For `Nc1ccc2c(c1)Nc1ccccc1CC2`, which Potency is on record?
Answer: Its Potency is inconclusive: 39.8 µM [inhibitor, single point].

Question: How did the Potency turn out when `CC1CCCC(C)N1/N=C/c1ccc(O)c(O)c1` (configuration not stated) was run?
Answer: Its Potency is inconclusive: 8.91 µM [inhibitor, single point].

Question: For `Cc1ccc(NC(=O)Nc2cccs2)c(Cl)c1`, which Potency is on record?
Answer: Its Potency is inconclusive: 11.1 µM [inhibitor, partial curve].

Question: For `Cc1cc(C)nc(N2N=C(c3ccccc3)CC2=O)n1`, which Potency is on record?
Answer: The Potency was inconclusive: 31.4 µM [inhibitor, single point].

Question: Which Potency does the source give for `O=C(NN1C(=O)/C(=C/C=C/c2ccco2)SC1=S)c1ccncc1` here?
Answer: Its Potency is inconclusive: 10 µM [inhibitor, partial curve].

Question: Which Potency does the source give for `CCN(CC)c1ccc(NC(=O)c2ccco2)cc1` here?
Answer: The Potency was “inactive”.

Question: Which Potency does the source give for `O=C(NNS(=O)(=O)c1ccc(F)cc1)c1sccc1-n1cccc1` here?
Answer: The Potency was inconclusive: 10 µM [inhibitor, partial curve, poor fit].
